No constants are given. Whether binding was seen depends on the method and setting. In cells and extracts the contact can be indirect. Some binding calls cover weakened binding; strength is not graded here. Sequences can lack the tags named with a protein.
Biological target: USF-1 overexpressed in 293FT cells (UniProt P22415)
Experiment: co-IP; 293FT cells overexpressing Flag-tagged JMJD1C constructs and USF-1; IP with USF-1 antibody, immunoblot with anti-JMJD1C antibody

Protein sequences, listed by entry. Tags and fused reporters are not part of them.
UniProt P22415: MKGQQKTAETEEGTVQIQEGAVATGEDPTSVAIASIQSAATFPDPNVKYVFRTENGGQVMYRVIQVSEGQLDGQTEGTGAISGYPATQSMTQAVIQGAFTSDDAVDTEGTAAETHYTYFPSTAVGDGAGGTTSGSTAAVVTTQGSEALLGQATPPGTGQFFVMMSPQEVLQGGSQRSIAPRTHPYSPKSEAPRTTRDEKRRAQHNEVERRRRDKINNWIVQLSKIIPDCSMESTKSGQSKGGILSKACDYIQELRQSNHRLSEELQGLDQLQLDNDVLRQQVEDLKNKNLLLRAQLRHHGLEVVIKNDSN

B1: Flag-tagged JMJD1C (1-619) (domain or fragment, UniProt Q15652 1-619)
chain: MAVETRAELVGKRFLCVAVGDEARSERWESGRGWRSWRAGVIRAVSHRDSRNPDLAVYVEFDDLEWDKREWVKVYEDFSTFLVEYHLIWAKRNDPSQTQGSKSKQIQWPALTFKPLVERNIPSSVTAVEFLVDKQLDFLTEDSAFQPYQDDIDSLNPVLRDNPQLHEEVKVWVKEQKVQEIFMQGPYSLNGYRVRVYRQDSATQWFTGIITHHDLFTRTMIVMNDQVLEPQNVDPSMVQMTFLDDVVHSLLKGENIGITSRRRSRANQNVNAVHSHYTRAQANSPRPAMNSQAAVPKQNTHQQQQQRSIRPNKRKGSDSSIPDEEKMKEEKYDYISRGENPKGKNKHLMNKRRKPEEDEKKLNMKRLRTDNVSDFSESSDSENSNKRIIDNSSEQKPENELKNKNTSKINGEEGKPHNNEKAGEETLKNSQPPWDQIQEDKKHEEAEKRKSVDTQLQEDMIIHSSEQSTVSDHNSNDLLPQECNMDKTHTMELLPKEKFVSRPPTPKCVIDITNDTNLEKVAQENSSTFGLQTLQKMDPNVSDSKHSIANAKFLETAKKDSDQSWVSDVVKVDLTQSSVTNASSGNDHLNMEKEKYVSYISPLSAVSVMEDKLHKRSPP
  binding: binds

— paper PMC7005700
